# Test results published in PubChem BioAssay AID1478 (National Center for Advancing Translational Sciences (NCATS), 2009).
# Where “and” joins values, the source holds several entries; their conditions need not be identical. Equal entries are not always repeated. About 860 (0.43%) of roughly 200,000 compounds were called active. The call rests on the fitted dose curve; in most records, active means well fitted inhibition curve with a large enough effect; inconclusive means small, poorly fitted or top-dose-only effect; inactive means flat fitted curve, though single readings scatter. The entries are a selection whose mix differs from that of the whole data set. Where a structure was tested more than once in an assay, its records may differ in their call.
# Molecular target: Cruzipain (Trypanosoma cruzi) (UniProt P25779)
# Chain of UniProt P25779 (P25779 whole entry, looked up): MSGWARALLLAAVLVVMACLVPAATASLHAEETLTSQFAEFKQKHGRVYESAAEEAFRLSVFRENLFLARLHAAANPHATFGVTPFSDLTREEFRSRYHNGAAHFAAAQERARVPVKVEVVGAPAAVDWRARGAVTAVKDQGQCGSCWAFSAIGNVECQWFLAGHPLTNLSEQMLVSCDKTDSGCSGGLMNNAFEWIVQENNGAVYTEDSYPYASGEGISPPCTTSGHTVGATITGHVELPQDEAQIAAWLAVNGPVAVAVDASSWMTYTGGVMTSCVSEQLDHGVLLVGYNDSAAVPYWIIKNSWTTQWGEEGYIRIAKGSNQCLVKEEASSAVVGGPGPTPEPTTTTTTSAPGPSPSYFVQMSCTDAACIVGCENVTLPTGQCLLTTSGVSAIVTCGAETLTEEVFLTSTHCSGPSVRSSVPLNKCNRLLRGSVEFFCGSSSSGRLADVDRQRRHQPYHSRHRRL
# Assay: qHTS Assay for Promiscuous and Specific Inhibitors of Cruzain (with detergent); further: nearly all actives have a fitted effect of over 40% in size
# Conditions: purified cruzain, Z-FR-AMC fluorescence, 0.01% Triton
# Protocol: Cruzain (3.4.22.51) is a cysteine protease from the tropical parasite Trypanosoma cruzi. Dual qHTS experiment was performed against the NCGC compound collection in order to 1) identify novel inhibitors of the enzyme and 2) profile the compound collection for promiscuous inhibitors operating via colloidal aggregation (by performing detergent-free and detergent-containing comparison screens). Cruzain was assayed by the use of fluorogenic coumarin-based substrate Z-FR-AMC: proteolytic cleavage releases AMC, whose fluorescence is measured at 360 nm excitation and 450 nm emission. Purified cruzain was supplied by the labs of Prof. James McKerrow and Brian Shoichet, UC San Francisco.
# This assay had 0.01% Triton X-100 concentration. See also releated assay "qHTS Assay for Promiscuous and Specific Inhibitors of Cruzain (without detergent)" with 0.00005% Triton X-100.
# See following references for additional details:
# Assay Provider: Shoichet, Brian; University of California, San Fancisco
# Screening Center PI: Austin, C.P.
# Screening Center: NIH Chemical Genomics Center [NCGC]
# Buffer: 100 mM Sodium Acetate, pH 5.5, 5 mM DTT, Triton X-100 concentration: 0.01%.
# Buffer in columns 3 and 4 as negative control (no enzyme).
# Substrate solution: 2 uM final concentration of Z-FR-AMC (catalog number I-1160, Bachem) dispensed throughout the plate.
# Enzyme: 1.5 nM Cruzain final concentration in columns 1, 2, 5-48. Column 1 is neutral (100% activity). Column 2 contained titration of covalent inhibitor K11777, starting concentration 1 mM, then 1:2 dilution in duplicate).
# Three uL of enzyme or buffer were dispensed to 1536-well Greiner black solid bottom plates. Compounds and controls (23 nL) were transferred via Kalypsys PinTool. The plates were incubated for 15 min at room temperature, and then 1 uL of substrate solution was added to start the reaction. The plates were immediately transferred to and read 4 times every 30 seconds for 2 min on ViewLux High-throughput CCD imager (Perkin-Elmer) using 360 nm excitation and 450 nm emission fluorescence protocol. The fluorescence intensity difference between the third and the first time points (time lapse of 60 seconds) was used to compute reaction progress.
# Potency means the concentration at half of the fitted maximal effect.
SMILES,"max response, negative = inhibition",Potency
CCCCCC#CCC#CCC#CCC#CCCCC(=O)O,inactive: -4.2%,–
CCOc1ccc(-c2nnc(SCC(=O)NCc3ccc(Cl)cc3)o2)cc1,–,active: 25.1 µM
CCNc1ncc2nc(-c3ccccc3)c(=O)n(C)c2n1,inactive: -0.657%,–
COc1cc(C2Oc3cc(C4Oc5cc(O)cc(O)c5C(=O)C4O)ccc3OC2CO)ccc1O (centres undefined),inactive: -11%,–
COc1cccc2c1C(=O)c1c(O)c3c(c(O)c1C2=O)C[C@@](O)(C(=O)CO)C[C@@H]3O[C@H]1C[C@H](N)[C@H](O)[C@H](C)O1,inactive: -23%,–
CCOC(=O)c1sc2nc(C(C)C)c3c(c2c1N)CCC3,inactive: 32.5%,–
Cc1ccc(C(=O)NCCc2nc3ccccc3[nH]2)cc1[N+](=O)[O-],–,active: 4.47 µM
O=c1cc(-c2ccccc2F)nc(-c2ccccc2F)o1,–,active: 4.47 µM
O=C(CN1C(=O)/C(=C\c2cccc(F)c2)Oc2ccccc21)N1CCN(c2ccccn2)CC1,inactive: 43.9%,–
CC1(C)CC(=O)c2c(oc3cc(O)c(O)cc23)C1,inactive: 1.06%,–
CCCCCCCCCCCCCCC[C@H](O)[C@H](N)CO,inactive: -2.88%,–
Oc1c(Cl)cc(Cl)c(Cl)c1Cc1c(O)c(Cl)cc(Cl)c1Cl,inactive: -22.8%,–
COCCNC(=S)NCCCNc1nc2cc3c(cc2cc1C#N)OCO3,–,active: 17.8 µM
CCc1ccc(NC(=O)c2cc3sc(Cl)cc3n2C)cc1,inactive: 31.9%,–
CSc1nnc(-c2ccco2)c(-c2ccco2)n1,–,active: 14.1 µM
CC1=NCCc2c1[nH]c1cc(O)ccc21,inactive: -2.11% and inactive: -12.5%,–
CCc1nc2cccnc2n1-c1ccc(CC(=O)Nc2ccccc2Cl)cc1,–,active: 12.6 µM
COC(=O)[C@H](NC(=O)c1cc(-c2ccccc2)nc2ccccc12)c1ccccc1,inactive: -6.25%,–
N[C@@H](Cc1cc(I)c(Oc2ccc(O)c(I)c2)c(I)c1)C(=O)O,inactive: -2.42%,–
CC1CCCC(=O)CCC/C=C/c2cc(O)cc(O)c2C(=O)O1 (centres undefined),inactive: -2.36%,–
NC(=NCCCCCCN=C(N)/N=C(\N)Nc1ccc(Cl)cc1)/N=C(\N)Nc1ccc(Cl)cc1,inactive: -27%,–

SMILES,"max response, negative = inhibition",Potency
CC1=C(C(=O)OCc2ccccc2)C(c2ccc3ccccc3c2)NC(=O)N1CCCCCC(=O)O (centres undefined),inactive: -23.7%,–
C[C@H]1CCCC(=O)CCC/C=C/c2cc(O)cc(O)c2C(=O)O1,inactive: -12.6% and inactive: -24.3%,–
CCn1c(C(=O)Nc2ccsc2C(=O)OC)cc2sc(Cl)cc21,inactive: 41.9%,–
O=C(CN1C(=O)/C(=C\c2ccc(F)cc2)Oc2ccccc21)N1CCN(c2ccccn2)CC1,inactive: 63.4%,–
CCn1c(C(=O)Nc2cc(C)cc(C)c2)cc2sc(Cl)cc21,inactive: 8.3%,–
CCCn1c(=N)c(C(=O)NC2CCCC2)cc2c(=O)n3cccc(C)c3nc21,inactive: -12.4%,–
COc1ccc([C@@H]2CNC(=O)C2)cc1OC1CCCC1,inactive: 1.85% [middle of 4 runs],–
CCOC(=O)CNc1nc(C#N)nc(N2CCOCC2)n1,–,active: 2.24 µM
O=C(COC(=O)CNC(=O)C1CCCCC1)Nc1ccc(Cl)cn1,–,active: 6.31 µM
CCCCCCCCCCCCCCC[C@@H](O)[C@@H](N)CO,inactive: -20.6% and inactive: 2.38%,–
O=C1CSC(c2cn(-c3ccccc3)nc2-c2cc3ccccc3oc2=O)N1Cc1ccccc1 (centres undefined),–,active: 28.2 µM
COc1cccc2c1C(=O)c1c(O)c3c(c(O)c1C2=O)C[C@@](O)(C(=O)CO)C[C@@H]3O[C@@H]1C[C@H](N)[C@H](O)[C@H](C)O1,inactive: -16.8%,–
Cc1c2ccncc2c(C)c2c1[nH]c1ccccc12,inactive: -23.4% and inactive: -10.8%,–
CN(C)S(=O)(=O)c1ccc2[nH]cc(/C=C/c3nc4ccccc4c(=O)n3-c3ccccc3)c2c1,inactive: 33.2%,–
COCCCn1c(=N)c(C(=O)NC2CCCCC2)cc2c(=O)n3ccccc3nc21,inactive: -8.7%,–
CN(C(=O)COC(=O)CNC(=O)c1sc2ccccc2c1Cl)c1ccccc1,–,active: 8.91 µM
Nc1cccc(N)c1,–,active: 11.2 µM
COc1cccc2c1C(=O)c1c(O)c3c(c(O)c1C2=O)C[C@@](O)(C(=O)CO)C[C@@H]3OC1C[C@@H](N)[C@H](O)[C@H](C)O1 (some centres undefined),inactive: -6.14%,–
CCCCn1c2ccc(F)cc2c2nnc(SCCN(CC)CC)nc21,–,active: 15.8 µM
CCOC(=O)C1(C)C=C(Nc2ccc(C(=O)O)cc2)C(=O)N1c1ccc(C(=O)O)cc1 (centres undefined),inactive: 180%,–
COc1ccc2oc(-c3ccc(C)c(NC(=O)CSc4ccc(Cl)cc4)c3)nc2c1,inactive: 2.06%,–

SMILES,"max response, negative = inhibition",Potency
COc1ccc(C2CNC(=O)C2)cc1OC1CCCC1 (centres undefined),inactive: 3.95% and inactive: -0.173%,–
N#CCCCl,inactive: 3.64%,–
Cc1nccc2c1[nH]c1ccccc12,inactive: -15.7% [middle of 4 runs],–
Cn1c(=O)c(C(=O)COC(=O)c2cc(-c3ccco3)nc3ccccc23)c(N)n(CC2CC2)c1=O,inactive: -12.6%,–
NC(=O)c1ccc(-c2ncc(-c3ccccc3)o2)cc1,inactive: 40.8%,–
O=c1c(O)c(-c2cc(O)c(O)c(O)c2)oc2cc(O)cc(O)c12,inactive: -19.2% and inactive: -19.3%,–
O=c1ccc2cc(O[C@H]3OC(CO)C(O)C(O)C3O)c(O)cc2o1 (some centres undefined),inactive: 2.04%,–
CN(C)c1cc(-c2cccc(NS(C)(=O)=O)c2)ncn1,–,active: 12.6 µM
O=C(OCC(=O)c1ccc([N+](=O)[O-])cc1)/C(=C\c1ccc(Cl)cc1)NC(=O)c1ccccc1,inactive: -4.5%,–
CCCn1nc(C(=O)Oc2ccc3c(C)cc(=O)oc3c2)c2ccccc2c1=O,inactive: 39.3%,–
CCOCC(=O)Nc1c(C(=O)Nc2ccccc2OC)oc2ccccc12,inactive: 31.1%,–
O=C(NCCc1nc2ccccc2[nH]1)c1ccc(Cl)c([N+](=O)[O-])c1,–,active: 1.26 µM
COC(=O)CN(C#N)c1nc(SC)nc(N(C)C)n1,–,active: 15.8 µM
COc1ccc(/C=C2\OC(=O)c3c(OC)cccc32)cc1OC,inactive: 33%,–
CCCCn1nc(C(=O)Oc2ccc3c(C)cc(=O)oc3c2)c2ccccc2c1=O,inactive: 37.2%,–
CCCn1c(=O)c2[nH]c(-c3ccc(S(=O)(=O)O)cc3)nc2n(CCC)c1=O,inactive: 37.5%,–
CCN(CC)C(=O)N[C@@H]1C[C@H]2c3cccc4[nH]cc(c34)C[C@@H]2N(C)C1,inactive: -1.01% and inactive: 4.59%,–
COCCCNC(=O)C1CCN(S(=O)(=O)c2c(C)noc2/C=C\c2ccc(OC)cc2)CC1,inactive: 49.8%,–
COc1ccc(N(CC(O)Cn2c3ccccc3c3ccccc32)S(=O)(=O)c2ccccc2)cc1 (centres undefined),inactive: 33%,–
COc1ccc(S(=O)(=O)N(Cc2cc3ccc(OC)cc3[nH]c2=O)CC2COCCO2)cc1 (centres undefined),inactive: 178%,–
O=C(Nc1ccc(S(=O)(=O)Nc2ncccn2)cc1)c1ccc(Br)s1,inactive: 46.7%,–

SMILES,"max response, negative = inhibition",Potency
CCCCn1c2ccc(F)cc2c2nnc(SCCN3CCCCC3)nc21,–,active: 15.8 µM
CC(=O)c1cccc(NC(=O)CCCN2C(=O)COc3ccc(C)cc32)c1,–,active: 17.8 µM
Cc1ccc(NC(=O)Cc2ccc(-n3c(C)nc4cccnc43)cc2)c(Cl)c1,–,active: 8.91 µM
COc1cc(/C=N/NC(=O)C(Cc2c[nH]c3ccccc23)NC(=O)OCC(C)C)cc([N+](=O)[O-])c1O (centres undefined),inactive: -19.4%,–
Cc1cc(N)c2ccccc2[n+]1CCCCCCCCCC[n+]1c(C)cc(N)c2ccccc21,inactive: -23.1% and inactive: -22.9% and inactive: -25.8%,–
Nc1ccc(O)c2c(=O)cc(-c3ccccc3Cl)oc12,inactive: -1.83%,–
COc1ccc(OCC2c3cc(OC)c(OC)cc3CCN2C(=O)c2c(F)cccc2F)cc1 (centres undefined),inactive: 30.8%,–
CC(=O)N1CCN(C(=O)COc2ccc(Br)cc2)CC1,inactive: 30.8%,–
CC(C)(Sc1ccc(CCN(CCCCC2CCCCC2)C(=O)NC2CCCCC2)cc1)C(=O)O,inactive: -18%,–
CCc1c(C)c2cc(Cl)c(O)c(CN3CCCCC3)c2oc1=O,–,active: 31.6 µM
O=C(NCCc1ccccc1)c1ccc2nc(-c3ccco3)c(-c3ccco3)nc2c1,–,active: 15.8 µM
O=S(=O)(c1ccccc1)N(CC(O)Cn1c2ccccc2c2ccccc21)c1ccccc1 (centres undefined),inactive: 34.2%,–
CSc1ccc(-c2c(C#N)c(N)nc3c2CCCC3)cc1,inactive: 41.5%,–
CCN(CC)Cc1c(O)ccc2c(C)c(CC(=O)OC)c(=O)oc12,–,active: 25.1 µM
O=C(Nc1cccc(C(F)(F)F)c1)c1ccc2nc(-c3ccco3)c(-c3ccco3)nc2c1,–,active: 14.1 µM
CN(C)CCNC(=O)c1cc2c(=O)n(C)c3ccccc3c2n1C,–,active: 25.1 µM
COc1ccc(-c2cc(C#N)nc(N3CCN(C)CC3)n2)cc1,–,active: 25.1 µM
c1ccc(Cn2c(-c3cccs3)nc3nc4ccccc4nc32)cc1,inactive: 51.8%,–
O=C(Nc1ccc([N+](=O)[O-])cc1Cl)c1cc(Cl)ccc1O,inactive: -0.0468% and inactive: 2.12%,–
COc1cccc2c1C(=O)c1c(O)c3c(c(O)c1C2=O)C[C@@](O)(C(=O)CO)C[C@H]3O[C@H]1C[C@@H](N)[C@H](O)[C@@H](C)O1.[W],inactive: 3.41%,–
Cc1cc(-n2c(=O)c(C#N)cc3c(=O)n4cccc(C)c4nc32)no1,inactive: 105%,–
